According to publication PMC2289905 (The Journal of Cell Biology, 1991):

B1: pre-pro-TGFbeta1 insertion mutant In50, cell-associated precursor (natural protein)
chain: not shown
B2: pre-pro-TGFbeta1 insertion mutant In154, cell-associated precursor (natural protein)
chain: not shown
B3: pre-pro-TGFbeta1, wild type, cell-associated precursor (natural protein)
chain: not shown
B4: pre-pro-TGFbeta1 insertion mutant In170, cell-associated precursor (natural protein)
chain: not shown

Molecular target: the molecule itself
Assay: nonreducing SDS-PAGE with immunoblot

Stoichiometry N, 2:
B1, B2, B3, B4
